Some of the results follow. At the low end of the ranking, values are background and their order means little.

The target of the test is SIX1 homeodomain (reference allele) (UniProt Q15475). Kind of test: universal protein binding microarray. The note with it: Universal all-10-mer PBM (8x60K, AMADID 030236), 300 nM GST-tagged protein, Alexa Fluor 488 anti-GST; buffer, salt, pH and temperature not stated; high values mean tight binding; most listed sequences are background and not binding sites; double strand, one strand shown.
Regarding AATCCTGA, the binding signal amounted to 0.0549 E-score.

As to CAGGACTC, the binding signal was -0.145 E-score.

Turning to CTAGAAAC, the binding signal is -0.194 E-score.

Consider GACCTATC, for which the binding signal worked out at 0.269 E-score.

With ATCATTGG, the binding signal came out at 0.186 E-score.

With CGTATGAA, the binding signal was 0.15 E-score.

On to ACTGTACC, for which the binding signal was 0.11 E-score.

Take ATCGCTTG: the binding signal stood at 0.156 E-score.

Take GCGTACGC: the binding signal was -0.326 E-score.

Regarding ATACTGAG, the binding signal was 0.286 E-score.

As for GGCTGACC, the binding signal is -0.23 E-score.

Take CGGACTCC: the binding signal was -0.158 E-score.

For CAGATAAG, the binding signal is 0.0588 E-score.

For the sequence ATTTAATC, the binding signal was 0.21 E-score.

Turning to CGGATACC, the binding signal worked out at 0.476 E-score.

On to ACCTGTTG, for which the binding signal is -0.0405 E-score.

ATTACCGG: the binding signal was -0.00501 E-score.

As to AGTCCGCC, the binding signal is -0.227 E-score.

CATGTAAG: the binding signal is -0.037 E-score.

On to GACCGAAA, for which the binding signal was -0.277 E-score.

ATCGGGGG: the binding signal turned out to be 0.223 E-score.

CGGCTTGA: the binding signal was -0.0287 E-score.

In the case of CCTGCTAA, the binding signal is -0.0332 E-score.

Turning to CTGCTGCC, the binding signal is -0.156 E-score.

For the sequence AGATTCAT, the binding signal was determined as 0.11 E-score.

Turning to CATATTCG, the binding signal is -0.021 E-score.

Regarding ATTTTCGA, the binding signal was -0.00032 E-score.

Consider CCTTTGGA, for which the binding signal is -0.124 E-score.

ATCAGATC: the binding signal worked out at 0.394 E-score.

As to AGATCTGC, the binding signal came to 0.204 E-score.

As for CCTTTGGC, the binding signal is -0.112 E-score.

As for CTGTCCTA, the binding signal was -0.176 E-score.

Take GGGACGAA: the binding signal was -0.243 E-score.

Turning to ATAGGCAG, the binding signal was determined as 0.184 E-score.

Turning to CTTTGGAC, the binding signal was -0.141 E-score.

For the sequence GACTGAAA, the binding signal was -0.253 E-score.

As to GAAGCGAA, the binding signal is -0.377 E-score.

As for CTAATCAG, the binding signal came to 0.0087 E-score.

Take GCTGACAA: the binding signal was -0.164 E-score.

As to ACGGGTGC, the binding signal was -0.0844 E-score.

On to GAGACACC, for which the binding signal turned out to be 0.306 E-score.

Take ACGCCGGG: the binding signal was determined as 0.0213 E-score.

On to GATGCCTA, for which the binding signal is -0.00417 E-score.

With TTTAGAAA, the binding signal was -0.127 E-score.

With CCGATGTC, the binding signal was -0.156 E-score.

With TAGCGATA, the binding signal is 0.38 E-score.

For the sequence CCGACCCG, the binding signal amounted to 0.108 E-score.

For the sequence ACACGCTC, the binding signal is -0.0153 E-score.

Consider AGCAACCA, for which the binding signal is -0.137 E-score.

For the sequence CAGGATCA, the binding signal is 0.386 E-score.

With ATTCGCGA, the binding signal was 0.107 E-score.

On to AAATGCAA, for which the binding signal was -0.251 E-score.

CTAATACA: the binding signal was determined as 0.0752 E-score.

For CCGGTGTC, the binding signal worked out at 0.431 E-score.

For AAGCTAGG, the binding signal was -0.131 E-score.

As to GAGATCTA, the binding signal was found to be 0.172 E-score.

For ACTACTAG, the binding signal worked out at 0.146 E-score.

For AACGCCAG, the binding signal is -0.124 E-score.

As to ACCTCTAG, the binding signal was found to be 0.0597 E-score.

For the sequence AGCGTGCC, the binding signal is -0.18 E-score.

For CGGGTCGA, the binding signal stood at 0.161 E-score.

Regarding CACGTTCG, the binding signal was -0.15 E-score.

In the case of CCGAGCAA, the binding signal is -0.0656 E-score.

With AATTTAGG, the binding signal is -0.109 E-score.

On to GCTTCTAA, for which the binding signal was -0.0185 E-score.

Regarding GGTCAAAA, the binding signal was -0.133 E-score.

Take CAGGGCGC: the binding signal was -0.0924 E-score.

For CGCAATGC, the binding signal is -0.0481 E-score.

Consider AGTAACGA, for which the binding signal was -0.12 E-score.

Consider CGTTCGAA, for which the binding signal was -0.0975 E-score.

As for AGCCACTA, the binding signal was -0.0645 E-score.

Consider CCCGGGAC, for which the binding signal was 0.0225 E-score.

For the sequence ATTCGGGA, the binding signal was -0.0545 E-score.

For CCGCATCA, the binding signal turned out to be 0.007 E-score.

As for GCACTCGA, the binding signal was -0.148 E-score.

Take CGCGGGAA: the binding signal was -0.119 E-score.

As for GCAATACC, the binding signal amounted to 0.348 E-score.

On to CGCACTGC, for which the binding signal is -0.133 E-score.

With GAGATCCC, the binding signal turned out to be 0.378 E-score.

As to CCAAATAA, the binding signal was -0.202 E-score.

For the sequence TAGGCGGA, the binding signal is 0.0675 E-score.

With CCGGTTGA, the binding signal amounted to 0.105 E-score.

Consider AGTTTCAC, for which the binding signal is -0.144 E-score.

In the case of CATGACCG, the binding signal was -0.0195 E-score.

In the case of ACAACGTA, the binding signal was -0.139 E-score.

For the sequence GAGGGCTA, the binding signal came to 0.0266 E-score.

Turning to CGTTGCAC, the binding signal was -0.134 E-score.

As for TATTAAAA, the binding signal came out at 0.18 E-score.

In the case of CACCCCAG, the binding signal was determined as 0.221 E-score.

In the case of GTCTAACA, the binding signal is -0.0192 E-score.

Turning to CGTGGCCC, the binding signal was -0.216 E-score.

For ACGTGATA, the binding signal was 0.344 E-score.

Regarding ATATTGTG, the binding signal was 0.136 E-score.

For CGGAGAAC, the binding signal was found to be 0.0501 E-score.

In the case of AGACTCAA, the binding signal is -0.0485 E-score.

GACAGTGA: the binding signal was 0.0434 E-score.

As for CACCGTAG, the binding signal is -0.0238 E-score.

As to ACCGGAAA, the binding signal was -0.0676 E-score.

For GCACCACA, the binding signal is -0.0302 E-score.

As to AAAAAAAA, the binding signal was -0.172 E-score.

On to CTGCTGGA, for which the binding signal is -0.0618 E-score.

Turning to GCTATCAC, the binding signal is 0.357 E-score.

With ATGTGGGC, the binding signal was -0.0895 E-score.

On to GAGAGGTA, for which the binding signal came to 0.118 E-score.

Take AGGGTCAA: the binding signal was -0.231 E-score.

As for GTTTTACA, the binding signal is -0.109 E-score.

ATCATGCA: the binding signal came out at 0.225 E-score.

For the sequence GTAAAAAC, the binding signal was -0.177 E-score.

On to ACCATCGT, for which the binding signal is -0.104 E-score.

TCACGCAA: the binding signal is -0.0264 E-score.

Turning to CCTGGCTA, the binding signal was -0.0587 E-score.

For ACCTCTTA, the binding signal is -0.0505 E-score.

As for AATACGCA, the binding signal came out at 0.128 E-score.

Turning to AGGTCATC, the binding signal was -0.0726 E-score.

As for CAAATAAC, the binding signal was -0.121 E-score.

In the case of ACGTTGAC, the binding signal was -0.225 E-score.

For the sequence AAGGACTA, the binding signal was -0.125 E-score.

As for CCGTTAAC, the binding signal was -0.109 E-score.

For the sequence ACCGGTGA, the binding signal came to 0.127 E-score.

Turning to ATACCAAC, the binding signal was found to be 0.367 E-score.

Turning to CGTCGCCA, the binding signal was -0.314 E-score.

As for AAGATCTT, the binding signal amounted to 0.0771 E-score.

In the case of CCCTCACC, the binding signal turned out to be 0.106 E-score.

For the sequence ATATAAGC, the binding signal was 0.129 E-score.

With AATTTTGC, the binding signal is -0.369 E-score.

As for CCCATACG, the binding signal was found to be 0.033 E-score.

Consider ATTTAGCG, for which the binding signal was -0.114 E-score.

Take CGCCTGCC: the binding signal is -0.0259 E-score.

TCGTTGAA: the binding signal was -0.179 E-score.

For the sequence AAACAAGG, the binding signal is -0.0269 E-score.

Regarding AGCTGAAC, the binding signal was -0.172 E-score.

As for CGACGCGA, the binding signal was -0.068 E-score.

Consider AAGAAGTC, for which the binding signal turned out to be 0.00189 E-score.

With TAGGTATA, the binding signal was 0.382 E-score.

Consider AGCGTACA, for which the binding signal was -0.162 E-score.

GGTAATAA: the binding signal was 0.0477 E-score.

AAAAAGTC: the binding signal was -0.293 E-score.

On to AGCGATAC, for which the binding signal was 0.453 E-score.

GCTAGCAA: the binding signal is -0.147 E-score.

In the case of GCGCCGAA, the binding signal is -0.213 E-score.

On to TTAACAAA, for which the binding signal was -0.309 E-score.

As to GCGCGCCC, the binding signal is -0.245 E-score.

For the sequence ATTCGCTG, the binding signal is -0.11 E-score.

For the sequence CCCCTTAC, the binding signal is 0.15 E-score.

As to AGAACCTA, the binding signal is -0.0641 E-score.

Consider CGCAATCC, for which the binding signal was found to be 0.229 E-score.

On to GTCCGCGA, for which the binding signal was -0.0516 E-score.

Consider TGAGCTAA, for which the binding signal is -0.057 E-score.

As to CCCAAGCG, the binding signal is -0.0981 E-score.

As to CTTTTCGC, the binding signal was -0.241 E-score.

In the case of ATATGTAG, the binding signal worked out at 0.151 E-score.

On to CCGTCCTC, for which the binding signal is -0.0618 E-score.

AAGTGAGT: the binding signal was -0.0153 E-score.

Turning to TGCAGCCA, the binding signal was -0.0699 E-score.

On to CGCCCAAC, for which the binding signal was -0.186 E-score.

Turning to GCATATAC, the binding signal came to 0.227 E-score.

Take CAGAGAAC: the binding signal was -0.171 E-score.

For the sequence GATTCATA, the binding signal stood at 0.107 E-score.

Turning to ATTCCTGG, the binding signal worked out at 0.019 E-score.

Consider AACGGTTC, for which the binding signal was -0.296 E-score.

Turning to CATACTGC, the binding signal is -0.0865 E-score.

For the sequence GGGACTAA, the binding signal was -0.195 E-score.

As to CTACTTGA, the binding signal is -0.113 E-score.

For GCTCTGTA, the binding signal is -0.00024 E-score.

For the sequence AGCTCATC, the binding signal amounted to 0.0766 E-score.

Regarding ACAGAATG, the binding signal was -0.168 E-score.

For the sequence ATGGGCGC, the binding signal is -0.259 E-score.

In the case of ACCTGTGG, the binding signal was -0.0517 E-score.

With TACAGACA, the binding signal stood at 0.0658 E-score.

For AGCCTTGA, the binding signal was -0.0838 E-score.

ATCAATAC: the binding signal worked out at 0.367 E-score.

Consider CCATAGTC, for which the binding signal was -0.135 E-score.

Values taken from article PMC10668032.
